Data: PubChem BioAssay AID651820 (National Center for Advancing Translational Sciences (NCATS), 2012)
Screen size: about 340,000 compounds; about 12,000 (3.5%) were called active. The inconclusive results got no clear call from the source; some entries with a clear call stand among them for comparison. Calls follow the shape of the dose curve; as a rule, active = well fitted inhibition curve with a large enough effect; inconclusive = small, poorly fitted or top-dose-only effect, or another doubt; inactive = no such curve, though single readings can be large or run the other way. Potencies of inconclusive entries are left out as doubtful fits.

Assay: qHTS Assay for Inhibitors of Hepatitis C Virus (HCV)
Conditions: Huh7.5.1 HCVcc-Cre (HCVcc is cell-culture hepatitis C virus) infection, luciferase reporter, 44 h; activity change, negative = inhibition: at 41.8 µM (top of the series) unless noted
In short: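 Antiviral activity was scored by luciferase reporter output from cells infected with HCVcc-Cre (~0.5 moi) in presence of compound, 44 h infection period, cells seeded 1,000/well 4 h prior.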
% is scaled to controls: 0 for no effect and ±100 for the full control effect; potency is read from the fitted curve at half-maximal effect; tags tell the direction and shape of the fitted curve.

| Structure (SMILES) | Potency | activity change, negative = inhibition |
| --- | --- | --- |
| Cc1cc(-c2ccc(C)c(S(=O)(=O)NCC3CCN(Cc4ccc(F)cc4)CC3)c2)on1 | active: 8.91 µM |  |
| Cc1ccc(NC(=O)CN(C)C(=O)c2ccccc2Sc2ccccc2C#N)cc1 | inconclusive [inhibitor, single point] |  |
| O=C(CN(C1CCCCC1)S(=O)(=O)c1ccccc1)NCC1CCCO1 (stereo not given) | inactive |  |
| COc1cccc(Nc2nc(C)cc(C)c2C#N)c1 | inconclusive [inhibitor, single point] |  |
| CCn1cc(C(=O)N[C@@H](C)C(=O)NCCCO)c(=O)c2cc3c(cc21)OCO3 | inactive |  |
| CCc1cc(=O)oc2cc(C)cc(OCC(=O)N3CCC(C(=O)NC(C)C)(c4ccccc4)CC3)c12 | inconclusive [inhibitor, partial curve] |  |
| CN(Cc1ccccc1)CC(O)COc1ccc(CNCc2ccc(Cl)s2)cc1 (stereo not given) | inconclusive [inhibitor, partial curve] |  |
| c1nnnn1C12CC3CC(CC(C3)C1)C2 | inactive |  |
| COc1cnc(-c2ccccc2)nc1Sc1ccccc1 | active: 12.6 µM |  |
| CC1(C)N=C(N)N=C(N)N1CCCCc1ccccc1 | inconclusive [inhibitor, full curve, poor fit] |  |
| CCS(=O)(=O)Nc1cccc(C2=NN(S(C)(=O)=O)C(c3cccs3)C2)c1 (stereo not given) | inactive |  |
| NC(=O)CN(C/C=C/c1ccccc1)C/C=C/c1ccccc1 | inactive |  |
| Cc1ccccc1NC(=O)CCC(=O)N/N=C/c1cccnc1 | inactive |  |
| CCSc1nc2c(c(-c3ccc(C)o3)c1C#N)CCCC2 | inconclusive [inhibitor, full curve] |  |
| Cc1ccc(C(C)NC(=O)COC(=O)C2=COCCO2)cc1C (stereo not given) | inactive |  |
| CCC(C)Nc1nc2c(c(=O)[nH]c(=O)n2C)n1CCCc1ccccc1 (stereo not given) | inactive |  |
| O=C(CCCC(=O)NCc1ccc(F)cc1)NCc1ccc(F)cc1 | inactive |  |
| CC(C)=CCc1c(O)ccc2c1OC(c1ccc(O)c(O)c1)CC2=O (stereo not given) | inconclusive [inhibitor, single point] |  |
| COc1cc(OC)cc(C(=O)N[C@H](C(=O)OCC(=O)Nc2ccc(F)c(F)c2F)C(C)C)c1 | inactive |  |
| Cn1c(=O)n(C)c2cc(/C=C3/NC(=O)N(Cc4ccccc4)C3=O)ccc21 | inconclusive [inhibitor, single point] |  |
| O=C(C1CCCN(S(=O)(=O)c2cccc3nsnc23)C1)N1CC=C(c2ccccc2)CC1 (stereo not given) | active: 12.6 µM |  |
| COc1ccc(CCNC(=S)N2CCN(S(=O)(=O)c3ccccc3)CC2)cc1 | inconclusive [inhibitor, partial curve] |  |
| C=CCNc1nc(-c2cccc(OC)c2O)nc2ccccc12 | active: 15.8 µM |  |
| C/C(=C\C(=O)c1ccccc1)Nc1ccc(Br)c(Cl)c1 | inactive |  |
| COc1ccc(CCNC(=O)c2ccnc(C(C)(C)C)c2)cc1OC | inconclusive [inhibitor, partial curve] |  |

| Structure (SMILES) | Potency | activity change, negative = inhibition |
| --- | --- | --- |
| COc1ccc(-c2cc(C(=O)N3CCN(Cc4ccccc4)CC3)no2)cc1OC | inconclusive [inhibitor, single point] |  |
| CCOC(=O)c1nnc(-c2ccccc2)nc1Sc1ccccc1Cl | inconclusive [inhibitor, single point] |  |
| Cn1nc(C(=O)NCc2cccc(F)c2)cc1C(=O)NCc1cccc(F)c1 | inactive |  |
| CCCCOc1ccc(Br)cc1CSC(=N)N | active: 2 µM |  |
| O=C(CN1CCCC1c1cccs1)Nc1cc(S(=O)(=O)N2CCCC2)ccc1Cl (stereo not given) | inconclusive [inhibitor, partial curve] |  |
| COc1ccc(N(Cc2ccccc2)S(=O)(=O)c2cc(C(=O)O)ccc2Cl)cc1 | inactive |  |
| CC1CCCCN1C(=O)C1CCN(c2nc(-c3ccccc3)nc3c2CCC3)CC1 (stereo not given) | active: 3.98 µM |  |
| COc1ccc(OC)c(/C=C2/Sc3ccccc3C2=O)c1 | inactive |  |
| O=C(N/N=C/c1ccc(F)cc1)c1cc(-c2ccco2)nc2ccccc12 | inactive |  |
| COc1ccc2occ(C(=O)c3ccc(N=C(C)N(C)C)cc3)c2c1 | inconclusive [inhibitor, full curve] |  |
| COc1ccc(Cl)cc1NC(=O)CNc1ccc(F)cc1C | inconclusive [inhibitor, partial curve] |  |
| COc1ccc(Cl)cc1NC(=O)CSc1nc(NS(=O)(=O)c2ccc(C)cc2)cc(=O)[nH]1 | inactive |  |
| COc1ccc(CN2CCN(C(=O)CC(C)C)CC2)c2ccccc12 | inactive |  |
| CCn1cc(C(=O)NCCCN2CCCC(C)C2)c(=O)c2cc(S(=O)(=O)N(C)C3CCCCC3)ccc21 (stereo not given) | inconclusive [inhibitor, single point] |  |
| Cc1ccc(NC(=O)C2(c3ccccc3)CC2(Cl)Cl)cc1C (stereo not given) | inactive |  |
| Cc1ccccc1CCN(C(=O)Cn1nnc2ccccc21)C(C(=O)NCC1CCCO1)c1nc2ccccc2n1C (stereo not given) | inconclusive [inhibitor, single point] |  |
| CCOC(=O)/C(C(N)=NCC(C)C)=C(/O)c1ccccc1 | inconclusive [inhibitor, single point] |  |
| Fc1ccc(N2CCN(C3=Nc4cccc5cccc3c45)CC2)cc1 | inconclusive [inhibitor, single point] |  |
| COc1cc(/C=N/N2CCN(c3ccccc3)CC2)cc(OC)c1OC(C)=O | inactive |  |
| Cc1cccc(N2CCN(C(=O)CCNS(=O)(=O)c3ccc4c(c3)CCC(=O)N4)CC2)c1C | inconclusive [inhibitor, single point] |  |
| O=C(Nc1ccc2c(c1)OCO2)c1noc2c1CCCC2 | inactive |  |
| COc1cc(/C=N\NC(=O)c2ccc(-c3ccccc3)cc2)ccc1OCC(N)=O | inconclusive [inhibitor, single point] |  |
| Cn1c(CC(=O)Nc2ccc(Cl)cc2)nnc1SCC(=O)N1CCOCC1 | inactive |  |
| CSc1nc(-c2ccccc2)nc(N2CCOCC2)c1C(C)=O | inconclusive [inhibitor, full curve] |  |
| COc1cccc(NC(=O)CN(C)C(=O)C2CC3C=CC2C3)c1 (stereo not given) |  | inconclusive: -42.9% [inhibitor] |
